From patent US11000038B2, “Pyridone compounds and agricultural and horticultural fungicides containing the same as active ingredients” (priority 2017, dated 2021)

Tests used:
[1] = tested on: barley powdery mildew fungi (Blumeria graminis f. sp. hordei); assay: Test Example D: barley powdery mildew, spray treatment of barley plants; details: for Test D control value class (barley powdery mildew): control value=100{1-(n/3)}; for Test D control value: barley powdery mildew
[2] = tested on: cabbage Alternaria sooty spot fungi (Alternaia brassicicola); assay: Test Example C: cabbage Alternaria sooty spot, spray treatment of cabbage plants; assay type: in vivo; details: for Test C control value class (cabbage Alternaria sooty spot): control value=100{1-(n/3)}; for Test C control value: cabbage Alternaria sooty spot
From the text: [Test Example C] Cabbage Alternaria Sooty Spot
Test plants (cabbage variety: Shikidori) were cultivated until the cotyledons extended after the sowing of seeds.
<Control Value> Control value=100{1−(n/3)}

[3] = tested on: grape downy mildew fungus (Plasmopara viticola); assay: Test Example G: grape downy mildew, spray treatment of grape plants; details: for Test G control value class (grape downy mildew): 2.5 ml/pot, grape Neomuscat, 7 to 10 days from inoculation; for Test G control value: grape downy mildew, 7 to 10 days after inoculation
[4] = tested on: wheat brown rust fungi (Puccinia recondita); assay: Test Example E: wheat brown rust, spray treatment of wheat plants; assay type: in vivo; details: for Test E control value class (wheat brown rust): control value=100{1-(n/3)}; for Test E control value: wheat brown rust
[5] = tested on: gray mold fungi (Botrytis cinerea); assay: Test Example B: tomato gray mold, spray treatment of tomato plants; details: for Test B control value class (tomato gray mold): control value=100{1-(n/3)}; for Test B control value: tomato gray mold
[6] = spray treatment of barley plants
[7] = spray treatment of cabbage plants
[8] = spray treatment of wheat plants
[9] = spray treatment of tomato plants

Structure (SMILES) | Test D control value class (barley powdery mildew) [1, 6] | Test C control value class (cabbage Alternaria sooty spot) [2, 7] | Test G control value class (grape downy mildew) ([3]; 250 ppm spray) | Test E control value class (wheat brown rust) [4, 8] | Test B control value class (tomato gray mold) [5, 9] | Test D control value [1, 6] | Test C control value [2, 7] | Test G control value ([3]; 250 ppm spray (2.5 ml/pot)) | Test E control value [4, 8] | Test B control value [5, 9] | further results
O=c1c(Cl)cn(CC2CCCCC2)c(-c2c(F)cc(F)cc2F)c1F [Compound 121] | L (L shows the control value of 50% or less) | H (H shows the control value of more than 50%) | L (L shows the control value of 50% or less) | H (H shows the control value of more than 50%) | L (L shows the control value of 50% or less) |  |  |  |  |  | 
COCOc1ccc(C)c(-n2cc(Br)c(=O)c(Cl)c2-c2c(F)cc(OC)cc2F)c1 [Compound 286, 5-bromo-3-chloro-2-(2,6-difluoro-4-methoxyphenyl)-1-(5-(methoxymethoxy)-2-methylphenyl)pyridin-4(1H)-one] |  |  |  |  |  | H (H shows the control value of more than 50%) | H (H shows the control value of more than 50%) | H (H shows the control value of more than 50%) | H (H shows the control value of more than 50%) | H (H shows the control value of more than 50%) | 
Cc1ccc(F)cc1-n1cc(Br)c(=O)c(Cl)c1-c1ccccc1 [Compound 399] |  |  |  |  |  |  |  |  |  |  | Test D control value ([1]; spray treatment): L (L shows the control value of 50% or less); Test C control value ([2]; spray treatment): L (L shows the control value of 50% or less); Test G control value ([3]; 250 ppm spray): L (L shows the control value of 50% or less); Test E control value ([4]; spray treatment): L (L shows the control value of 50% or less); Test B control value ([5]; spray treatment): L (L shows the control value of 50% or less)
CC(c1ccccc1)n1cc(Br)c(=O)c(Br)c1-c1c(F)cc(F)cc1F (centres unmarked) [Compound 78] | L (L shows the control value of 50% or less) | L (L shows the control value of 50% or less) | H (H shows the control value of more than 50%) | H (H shows the control value of more than 50%) | H (H shows the control value of more than 50%) |  |  |  |  |  | 
O=c1c(Cl)cn(CC(F)F)c(-c2c(F)cc(F)cc2F)c1Br [Compound 161] | L (L shows the control value of 50% or less) | H (H shows the control value of more than 50%) | L (L shows the control value of 50% or less) | H (H shows the control value of more than 50%) | H (H shows the control value of more than 50%) |  |  |  |  |  | 
Cc1ccc(F)cc1-n1cc(Br)c(=O)c(Br)c1-c1c(F)cc(F)cc1F [Compound 178] | L (L shows the control value of 50% or less) | H (H shows the control value of more than 50%) | H (H shows the control value of more than 50%) | H (H shows the control value of more than 50%) | H (H shows the control value of more than 50%) |  |  |  |  |  | 
O=c1c(Cl)cn(Cc2ccccc2Cl)c(-c2c(F)cc(F)cc2F)c1Br [Compound 80] | L (L shows the control value of 50% or less) | H (H shows the control value of more than 50%) | L (L shows the control value of 50% or less) | H (H shows the control value of more than 50%) | L (L shows the control value of 50% or less) |  |  |  |  |  | 
Cc1ccccc1-n1cc(Cl)c(=O)c(Br)c1-c1c(F)cc(F)cc1F [Compound 62] | H (H shows the control value of more than 50%) | H (H shows the control value of more than 50%) | H (H shows the control value of more than 50%) | H (H shows the control value of more than 50%) | H (H shows the control value of more than 50%) |  |  |  |  |  | 
O=c1c(Cl)cn(-c2cccnc2Cl)c(-c2c(F)cc(F)cc2F)c1Br [Compound 34] | H (H shows the control value of more than 50%) | H (H shows the control value of more than 50%) | H (H shows the control value of more than 50%) | H (H shows the control value of more than 50%) | H (H shows the control value of more than 50%) |  |  |  |  |  | 
CC1CCCCC1n1cc(Br)c(=O)c(Br)c1-c1c(F)cc(F)cc1F (centres unmarked) [Compound 160] | L (L shows the control value of 50% or less) | H (H shows the control value of more than 50%) | L (L shows the control value of 50% or less) | H (H shows the control value of more than 50%) | H (H shows the control value of more than 50%) |  |  |  |  |  | 
Cc1cccc(C)c1-n1cc(Cl)c(=O)c(Br)c1-c1c(F)cc(F)cc1F [Compound 306] |  |  |  |  |  | L (L shows the control value of 50% or less) | L (L shows the control value of 50% or less) | L (L shows the control value of 50% or less) | H (H shows the control value of more than 50%) | L (L shows the control value of 50% or less) | 
Cc1c(F)cccc1-n1cc(Br)c(=O)c(Cl)c1-c1c(F)cc(F)cc1F [Compound 187] |  |  |  |  |  | H (H shows the control value of more than 50%) | H (H shows the control value of more than 50%) | L (L shows the control value of 50% or less) | H (H shows the control value of more than 50%) | H (H shows the control value of more than 50%) | 
Cc1c(O)cccc1-n1cc(Br)c(=O)c(Br)c1-c1c(F)cc(F)cc1F [Compound 419] |  |  |  |  |  |  |  |  |  |  | Test D control value ([1]; spray treatment): L (L shows the control value of 50% or less); Test C control value ([2]; spray treatment): H (H shows the control value of more than 50%); Test G control value ([3]; 250 ppm spray): H (H shows the control value of more than 50%); Test E control value ([4]; spray treatment): H (H shows the control value of more than 50%); Test B control value ([5]; spray treatment): H (H shows the control value of more than 50%)
COc1cc(F)c(-c2c(Br)c(=O)c(Cl)cn2CC(C)(C)C)c(F)c1 [Compound 214] |  |  |  |  |  | L (L shows the control value of 50% or less) | H (H shows the control value of more than 50%) | L (L shows the control value of 50% or less) | H (H shows the control value of more than 50%) | H (H shows the control value of more than 50%) | 
Cc1cn(-c2ccccc2)c(-c2c(F)cc(F)cc2F)c(C)c1=O [Compound 441] |  |  |  |  |  |  |  |  |  |  | Test D control value ([1]; spray treatment): H (H shows the control value of more than 50%); Test C control value ([2]; spray treatment): H (H shows the control value of more than 50%); Test G control value ([3]; 250 ppm spray): H (H shows the control value of more than 50%); Test E control value ([4]; spray treatment): H (H shows the control value of more than 50%); Test B control value ([5]; spray treatment): H (H shows the control value of more than 50%)
COCOc1ccc(C)c(-n2cc(Cl)c(=O)c(Cl)c2-c2c(F)cc(F)cc2F)c1 [Compound 298] |  |  |  |  |  | H (H shows the control value of more than 50%) | H (H shows the control value of more than 50%) | H (H shows the control value of more than 50%) | H (H shows the control value of more than 50%) | H (H shows the control value of more than 50%) | 
O=c1c(Br)cn(-c2ccccc2)c(-c2ccccc2F)c1Cl [Compound 467] |  |  |  |  |  |  |  |  |  |  | Test D control value ([1]; spray treatment): L (L shows the control value of 50% or less); Test C control value ([2]; spray treatment): H (H shows the control value of more than 50%); Test G control value ([3]; 250 ppm spray): L (L shows the control value of 50% or less); Test E control value ([4]; spray treatment): L (L shows the control value of 50% or less); Test B control value ([5]; spray treatment): H (H shows the control value of more than 50%)
Cc1c(-n2cc(Br)c(=O)c(Cl)c2-c2c(F)cc(F)cc2F)cccc1C(F)(F)F [Compound 364] |  |  |  |  |  | H (H shows the control value of more than 50%) | H (H shows the control value of more than 50%) | H (H shows the control value of more than 50%) | H (H shows the control value of more than 50%) | H (H shows the control value of more than 50%) | 
CC(C)(C)Cn1cc(Br)c(=O)c(Br)c1-c1c(F)cc(F)cc1F [Compound 196] |  |  |  |  |  | H (H shows the control value of more than 50%) | H (H shows the control value of more than 50%) | L (L shows the control value of 50% or less) | H (H shows the control value of more than 50%) | H (H shows the control value of more than 50%) | 
